First the molecules themselves.
T1: BD-Atg9 (S. cerevisiae) (UniProt Q12142)
T1 sequence: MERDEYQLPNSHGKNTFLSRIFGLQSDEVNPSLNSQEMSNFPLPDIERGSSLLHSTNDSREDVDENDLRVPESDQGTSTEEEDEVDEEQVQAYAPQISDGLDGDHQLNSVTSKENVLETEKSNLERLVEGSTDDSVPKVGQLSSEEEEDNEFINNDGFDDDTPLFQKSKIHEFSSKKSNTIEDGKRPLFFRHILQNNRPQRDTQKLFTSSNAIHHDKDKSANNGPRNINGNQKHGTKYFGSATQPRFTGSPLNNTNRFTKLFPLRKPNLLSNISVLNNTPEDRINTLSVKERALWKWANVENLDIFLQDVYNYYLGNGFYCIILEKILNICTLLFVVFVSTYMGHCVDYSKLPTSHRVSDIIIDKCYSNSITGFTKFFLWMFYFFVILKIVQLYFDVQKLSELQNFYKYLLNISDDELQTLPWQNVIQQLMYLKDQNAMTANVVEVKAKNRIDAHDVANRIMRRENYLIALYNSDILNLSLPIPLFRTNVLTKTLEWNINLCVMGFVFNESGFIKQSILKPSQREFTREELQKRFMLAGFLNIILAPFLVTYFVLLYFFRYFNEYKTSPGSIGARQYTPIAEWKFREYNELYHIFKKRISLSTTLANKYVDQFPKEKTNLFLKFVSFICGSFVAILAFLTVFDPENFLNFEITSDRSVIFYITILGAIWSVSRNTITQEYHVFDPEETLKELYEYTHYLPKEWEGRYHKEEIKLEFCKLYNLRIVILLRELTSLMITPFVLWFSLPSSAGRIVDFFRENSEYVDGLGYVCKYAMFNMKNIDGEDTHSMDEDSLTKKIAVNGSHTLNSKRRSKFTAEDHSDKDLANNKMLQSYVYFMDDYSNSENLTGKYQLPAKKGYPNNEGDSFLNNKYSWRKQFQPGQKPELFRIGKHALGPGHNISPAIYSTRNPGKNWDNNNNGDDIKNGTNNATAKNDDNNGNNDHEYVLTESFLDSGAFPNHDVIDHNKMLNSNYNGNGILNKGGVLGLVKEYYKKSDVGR

T2: Atg9-PA (S. cerevisiae) (UniProt Q12142)
T2 sequence: T1 sequence

B1: AD-atg11ΔCC2 (protein, UniProt Q12527)
chain: MADADEYSTAPTQQEITPLQTTATIINAISGECITTNVDFFVSLDKFKQFIARKWKIPPDQLLILLPYGNKLKPSMFKELLINRSFTLNDFYVYDRRLFSLVSKPTPTNLLTSKDSNPMNSPNSNDLTETLEYLIKNSHISQYQGSDTIMIKPMPSPLEDADVDLSRLNYHSVTSLLTTNLGWLSALEIDVHYFKSLIPDIIAHIKRIFDGLTVCSQYLKLYCFDVESLYNSNVQFLNQLVDNGMTSKWEKCFNDTLSKLTALEGDSLQKFINIESLLENEKSVKILNHSINGKLNKIKREIDENASFRDIITVNIDRLRQMFTPNESKFELEDQMAESFEVLVSEMRTRSRNVLDKEEEEFNSQEFLKSMNVMLEKDKKESVKTLFTISQALYSQIGELIDLKKSLQKHAVAILGNIAFTQMEILGIKRLLLNECNKDLELYKKYEVEFAQVEDLPLIYGLYLIEKYRRLSWFQQILSFISNFNQDLELFKQNELRTRNKWVKNFGSIATVFCEDLLSSSDFKRLNEYHSHTSPPIIDLLSKTLFETKRFHIIYSNFKNNNNNSSNGNSISPEGSIALKSDDVVKGYKTRIKKLESLLHEFQYSDIGHWPQGVLNTHLKPFRGSATSINKKKFLGASVLLEPANISEVNIDSVSQANNHQIQELESNVDDLLHQLQLLKEENNRKSMQISEMGKKISDLEVEKTAYRETLTNLNQELARLTNEEQSHRTEIFTLNASFKKQLNDIISQDNEKIEKLTGDYDDVSKSRERLQMDLDESNKKHEQEVNLLKADIERLGKQIVTSEKSYAETNSSSMEKGEKFETIPLAEDPGRENQISAYTQTLQDRIFDIISTNIFILENIGLLLTFDNNNNIQIRRVKGLKKGTAQSNILDESTQMLDAHDNSLIKSPVFQKLKDEYELIKSVANGSEKDTQQSIFLGNITQLYDNKLYEVAVIRRFKDIETLAKKLTKENKIKRTLLERFQREKVTLRNFQIGDLALFLPTRENVNSVGSMSSSTSSLSSSFSSVDLSTPPPLDAMSIQSSPSVIHSNVINQASISGRDKNKLMRPWAAFTAFEESTRYFLKDEKGLTKGKEWFVGRIVTLEHFVADSPSNNPFRLPKGSVWFQVTAVVVSYQGV
B2: AD-atg11Δ455–535 (protein, UniProt Q12527)
chain: MADADEYSTAPTQQEITPLQTTATIINAISGECITTNVDFFVSLDKFKQFIARKWKIPPDQLLILLPYGNKLKPSMFKELLINRSFTLNDFYVYDRRLFSLVSKPTPTNLLTSKDSNPMNSPNSNDLTETLEYLIKNSHISQYQGSDTIMIKPMPSPLEDADVDLSRLNYHSVTSLLTTNLGWLSALEIDVHYFKSLIPDIIAHIKRIFDGLTVCSQYLKLYCFDVESLYNSNVQFLNQLVDNGMTSKWEKCFNDTLSKLTALEGDSLQKFINIESLLENEKSVKILNHSINGKLNKIKREIDENASFRDIITVNIDRLRQMFTPNESKFELEDQMAESFEVLVSEMRTRSRNVLDKEEEEFNSQEFLKSMNVMLEKDKKESVKTLFTISQALYSQIGELIDLKKSLQKHAVAILGNIAFTQMEILGIKRLLLNECNKDLELYKKYEVEFAQVEPNEDEEDENENSIANYRQDLVKVSQAIDNYMTQIKETDVSEPIIDLLSKTLFETKRFHIIYSNFKNNNNNSSNGNSISPEGSIALKSDDVVKGYKTRIKKLESLLHEFQYSDIGHWPQGVLNTHLKPFRGSATSINKKKFLGASVLLEPANISEVNIDSVSQANNHQIQELESNVDDLLHQLQLLKEENNRKSMQISEMGKKISDLEVEKTAYRETLTNLNQELARLTNEEQSHRTEIFTLNASFKKQLNDIISQDNEKIEKLTGDYDDVSKSRERLQMDLDESNKKHEQEVNLLKADIERLGKQIVTSEKSYAETNSSSMEKGEKFETIPLAEDPGRENQISAYTQTLQDRIFDIISTNIFILENIGLLLTFDNNNNIQIRRVKGLKKGTAQSNILDESTQMLDAHDNSLIKSPVFQKLKDEYELIKSVANGSEKDTQQSIFLGNITQLYDNKLYEVAVIRRFKDIETLAKKLTKENKIKRTLLERFQREKVTLRNFQIGDLALFLPTRENVNSVGSMSSSTSSLSSSFSSVDLSTPPPLDAMSIQSSPSVIHSNVINQASISGRDKNKLMRPWAAFTAFEESTRYFLKDEKGLTKGKEWFVGRIVTLEHFVADSPSNNPFRLPKGSVWFQVTAVVVSYQGV
B3: GFP-Atg11 (wild type) (protein, UniProt Q12527 1-1178)
chain: MADADEYSTAPTQQEITPLQTTATIINAISGECITTNVDFFVSLDKFKQFIARKWKIPPDQLLILLPYGNKLKPSMFKELLINRSFTLNDFYVYDRRLFSLVSKPTPTNLLTSKDSNPMNSPNSNDLTETLEYLIKNSHISQYQGSDTIMIKPMPSPLEDADVDLSRLNYHSVTSLLTTNLGWLSALEIDVHYFKSLIPDIIAHIKRIFDGLTVCSQYLKLYCFDVESLYNSNVQFLNQLVDNGMTSKWEKCFNDTLSKLTALEGDSLQKFINIESLLENEKSVKILNHSINGKLNKIKREIDENASFRDIITVNIDRLRQMFTPNESKFELEDQMAESFEVLVSEMRTRSRNVLDKEEEEFNSQEFLKSMNVMLEKDKKESVKTLFTISQALYSQIGELIDLKKSLQKHAVAILGNIAFTQMEILGIKRLLLNECNKDLELYKKYEVEFAQVEDLPLIYGLYLIEKYRRLSWFQQILSFISNFNQDLELFKQNELRTRNKWVKNFGSIATVFCEDLLSSSDFKRLNEYHSHTSPPNEDEEDENENSIANYRQDLVKVSQAIDNYMTQIKETDVSEPIIDLLSKTLFETKRFHIIYSNFKNNNNNSSNGNSISPEGSIALKSDDVVKGYKTRIKKLESLLHEFQYSDIGHWPQGVLNTHLKPFRGSATSINKKKFLGASVLLEPANISEVNIDSVSQANNHQIQELESNVDDLLHQLQLLKEENNRKSMQISEMGKKISDLEVEKTAYRETLTNLNQELARLTNEEQSHRTEIFTLNASFKKQLNDIISQDNEKIEKLTGDYDDVSKSRERLQMDLDESNKKHEQEVNLLKADIERLGKQIVTSEKSYAETNSSSMEKGEKFETIPLAEDPGRENQISAYTQTLQDRIFDIISTNIFILENIGLLLTFDNNNNIQIRRVKGLKKGTAQSNILDESTQMLDAHDNSLIKSPVFQKLKDEYELIKSVANGSEKDTQQSIFLGNITQLYDNKLYEVAVIRRFKDIETLAKKLTKENKIKRTLLERFQREKVTLRNFQIGDLALFLPTRENVNSVGSMSSSTSSLSSSFSSVDLSTPPPLDAMSIQSSPSVIHSNVINQASISGRDKNKLMRPWAAFTAFEESTRYFLKDEKGLTKGKEWFVGRIVTLEHFVADSPSNNPFRLPKGSVWFQVTAVVVSYQGV
B4: GFP-Atg11 DLL (protein, UniProt Q12527 1-1178)
chain: B3 chain with D516A, L517A, L526A
B5: GFP-Atg11 YDL (protein, UniProt Q12527 1-1178)
chain: B3 chain with Y468A, D516A, L517A
B6: GFP-Atg11 YDLL (protein, UniProt Q12527 1-1178)
chain: B3 chain with Y468A, D516A, L517A, L526A

Residue numbers refer to the chain shown, from its start. Results are given in words; binding and its absence hold for the method and conditions named. For part of these data: Binding seen in cells or lysates may run through a third protein. Some results given as binding are weak or reduced against the parent protein; the word gives no strength. Where a sequence is shown, tags or fusion partners need not be part of it.

The record followed here is doi:10.1101/2025.11.14.688473.

The target of the first assay is T1, BD-Atg9 (S. cerevisiae). The experiment in a line: two-hybrid; BD-ATG9 and AD-ATG11 or mutants in multiple-knockout yeast YCY149 (lacking 25 ATG genes); growth on SMD -ura -leu -his with 1.5 mM 3-amino-triazol, 4-5 days at 30°C.
For the molecule B1, the binding result is reported as “no binding”.

On to B2, for which the binding result is listed as “no binding”.

The target in the next assay is T2, Atg9-PA (S. cerevisiae). The experiment in a line: co-IP; overexpressed GFP-Atg11 or mutants precipitated by overexpressed Protein A-tagged Atg9; blots probed with anti-GFP; washes at 4°C; as in Meyer et al., 2022.
In the case of B3, the binding result is “binds”.

As to B4, the binding entry is “binds”.

For B5, the binding entry is “binds”.

As for B6, the binding entry is recorded as “binds”.
